# Test results taken from PubChem BioAssay AID504332 (National Center for Advancing Translational Sciences (NCATS), 2011).
# “And” between values parts separate entries of the source, which are not always exact repeats. Equal entries are not always repeated. In all, about 350,000 compounds went through this assay and about 31,000 (8.9%) were called active. The inconclusive results got no clear call from the source; some entries with a clear call stand among them for comparison. Calls come from the whole dose curve; as a rule, active = well fitted inhibition curve with a large enough effect; inconclusive = small, poorly fitted or top-dose-only effect; inactive = no such curve, though single readings can be large or run the other way. A potency beside an inconclusive call is a rough fit, not a confirmed value.
# Target: Histone-lysine N-methyltransferase EHMT2 (Homo sapiens) (UniProt Q96KQ7)
# Assay: qHTS Assay for Inhibitors of Histone Lysine Methyltransferase G9a; note: nearly all actives have a fitted effect of over 75% in size
# Conditions: G9a H3K9 monomethylation, AlphaScreen, 2 h; activity, negative = inhibition: at 59 µM (top of the series) unless noted
# Procedure, shortened: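 AlphaScreen read-out: biotin-H3K9 peptide (500 nM) methylation by 20 nM enzyme with 20 uM SAM, 2 h at room temperature after 15 min compound preincubation; anti-monomethyl H3K9 antibody plus donor/acceptor beads, 10 min dark.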
# % is set by controls: 0 for no effect and ±100 for the full control effect; potency is the fitted concentration of half-maximal effect; tags give direction and shape of the fitted curve.
# Sequence of UniProt Q96KQ7 (Q96KQ7 whole entry, looked up): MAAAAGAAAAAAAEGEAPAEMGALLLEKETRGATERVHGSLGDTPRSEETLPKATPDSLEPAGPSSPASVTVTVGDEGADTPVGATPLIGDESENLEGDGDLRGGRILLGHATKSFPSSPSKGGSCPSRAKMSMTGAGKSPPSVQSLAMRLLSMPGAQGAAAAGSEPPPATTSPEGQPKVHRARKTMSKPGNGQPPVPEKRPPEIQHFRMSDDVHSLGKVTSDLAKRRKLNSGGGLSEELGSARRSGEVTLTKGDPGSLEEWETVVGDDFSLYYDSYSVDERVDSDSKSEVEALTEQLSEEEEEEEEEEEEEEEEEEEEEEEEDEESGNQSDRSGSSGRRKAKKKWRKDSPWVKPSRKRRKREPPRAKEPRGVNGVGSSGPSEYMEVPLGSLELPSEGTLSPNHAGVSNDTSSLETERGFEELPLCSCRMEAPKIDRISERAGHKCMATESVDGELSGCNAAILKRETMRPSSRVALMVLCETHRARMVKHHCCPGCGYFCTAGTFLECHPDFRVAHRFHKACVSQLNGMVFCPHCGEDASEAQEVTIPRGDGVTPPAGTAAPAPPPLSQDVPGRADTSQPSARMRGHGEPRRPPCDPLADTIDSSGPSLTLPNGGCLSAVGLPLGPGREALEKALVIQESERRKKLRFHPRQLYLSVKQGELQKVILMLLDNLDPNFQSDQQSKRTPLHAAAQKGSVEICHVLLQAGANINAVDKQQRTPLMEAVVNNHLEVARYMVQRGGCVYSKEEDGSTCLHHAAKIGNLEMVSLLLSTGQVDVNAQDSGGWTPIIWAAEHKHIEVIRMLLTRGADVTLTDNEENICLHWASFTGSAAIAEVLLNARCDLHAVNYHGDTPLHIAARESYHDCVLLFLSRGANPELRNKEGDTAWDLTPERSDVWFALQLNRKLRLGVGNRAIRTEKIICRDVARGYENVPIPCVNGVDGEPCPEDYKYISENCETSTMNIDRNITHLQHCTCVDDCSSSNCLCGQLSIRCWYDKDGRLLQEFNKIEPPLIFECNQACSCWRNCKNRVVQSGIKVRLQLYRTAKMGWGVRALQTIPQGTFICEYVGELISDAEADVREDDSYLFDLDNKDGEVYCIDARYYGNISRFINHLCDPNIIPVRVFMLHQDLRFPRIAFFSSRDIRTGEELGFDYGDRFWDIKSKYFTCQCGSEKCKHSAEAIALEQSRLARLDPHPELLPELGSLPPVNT
Compound,Potency,"activity, negative = inhibition"
CC(/C=N/NC(=O)CSc1nc2ccccc2n1C)=C\c1ccco1,"inconclusive: 25.1 µM [inhibitor, single point]",
Cn1c(=O)c2c(nc(SC3C(=O)CC(C)(C)CC3=O)n2C)n(C)c1=O,"inconclusive: 39.8 µM [inhibitor, single point]",
CC(=O)N1CCc2c(sc3c2c(=O)n(-c2ccccc2)c(=O)n3Cc2ccccc2Cl)C1,"inconclusive: 14.1 µM [inhibitor, partial curve, poor fit]",
CCOc1ccc(C(CC(=O)O)NS(=O)(=O)c2ccc(C)cc2)cc1OC (stereo not drawn),"inconclusive: 79.4 µM [inhibitor, partial curve, poor fit]",
CCCCCCNCc1c(F)cccc1Cl,,inactive: 2.4%
CNC(=O)NC(=O)CSc1ccc(S(=O)(=O)N(C)C2CCCCC2)cn1,"inconclusive: 44.7 µM [inhibitor, partial curve, poor fit]",
COc1ccc([N+](=O)[O-])cc1N1C(=O)c2cccc3cccc(c23)C1=O,"inconclusive: 0.355 µM [inhibitor, full curve]",
Cc1ccc(S(=O)(=O)N2CCCC2C(=O)Nc2nccs2)cc1 (stereo not drawn),,inactive: 0.953%
NC(=O)c1ccc[n+]([C@@H]2OC(COP(=O)([O-])OP(=O)(O)OCC3OC(n4cnc5c(N)ncnc54)C(OP(=O)(O)O)C3O)C(O)C2O)c1 (stereo partly drawn),,inconclusive: -74.9% [inhibitor] [at 2.33 µM]
COc1ccc(NCc2nnc(SCC(=O)Nc3cccc(C)c3)o2)cc1,"inconclusive: 39.8 µM [inhibitor, partial curve, poor fit]",
CC(=O)Nc1ccc(S(=O)(=O)NCc2ccc(C)n2C)cc1,active: 39.8 µM,
Cc1ccc(-c2nc(N)n(C(=O)c3ccco3)n2)cc1,,inactive: 20.9%
ONC(=Nc1ccc(Cl)cc1)c1ccc(Cl)cc1,,inactive: 9.32% [at 12.7 µM]
COc1ccc(/C=C(\NC(=O)c2ccc(OC)cc2)C(=O)NC(CCSC)C(=O)O)cc1 (stereo not drawn),,inactive: -0.0533% [at 2.33 µM]
CCN(CC)C(NC(=O)Cc1ccccc1)C(Cl)(Cl)Cl (stereo not drawn),"inconclusive: 22.4 µM [inhibitor, single point]",
Cc1ccc2c(c1)C(c1ccccc1)N(C(=O)c1ccc(Br)o1)CC(=O)N2 (stereo not drawn),active: 39.8 µM,
CC(=O)c1c(C)[nH]c(C(=O)OCC(=O)N2CCc3ccccc32)c1C,"inconclusive: 0.891 µM [inhibitor, partial curve, poor fit]",
Cc1c2cn[nH]c(=O)c2c(C)n1Cc1ccc(F)cc1,"inconclusive: 0.794 µM [inhibitor, full curve, poor fit]",
CCOC(=O)C(CSCc1ccccc1)NC(=O)OC(C)(C)C (stereo not drawn),"inconclusive: 39.8 µM [inhibitor, partial curve, poor fit]",
Cc1ccc2c(c1)-c1c(cnn1CC(=O)N1CCN(c3cccc(C(F)(F)F)c3)CC1)CO2,,inactive: -4.33%
Cc1cccc(-n2cnc3c(c2=O)c2nc4ccccc4nc2n3Cc2ccco2)c1,"inconclusive: 2.82 µM [inhibitor, partial curve, poor fit]",
CSc1ccc(CNC(=O)c2ccc3c(c2)N(C)C(=O)C2CCCCN32)cc1 (stereo not drawn),,inactive: -26.3%
O=C(Nc1nnc(-c2ccc(Cl)cc2)o1)c1nc2ccccc2s1,,inactive: -3.64%

Compound,Potency,"activity, negative = inhibition"
CC1CCN(S(=O)(=O)c2ccc(NC(=O)CN3CCN(c4ccccc4)CC3)cc2)CC1,"inconclusive: 89.1 µM [inhibitor, single point]",
Cc1ccccc1OCc1ccc(-c2nc(C#N)c(N3CCCCC3)o2)o1,"inconclusive: 8.91 µM [inhibitor, partial curve]",
COc1ccc(-c2cn3nc(N4CCCC(C(=O)Nc5cc(Cl)ccc5OC)C4)sc3n2)cc1 (stereo not drawn),,inactive: -22.8%
Cn1c(/C(C#N)=C(\O)CN2CCN(Cc3ccccc3)CC2)nc2ccccc21,"inconclusive: 50.1 µM [inhibitor, partial curve]",
CC(NC(=O)C(=O)N1CCCCC1)C(c1cccs1)N1CCN(c2ccc(F)cc2)CC1 (stereo not drawn),"inconclusive: 79.4 µM [inhibitor, single point]",
CCOC(=O)C1CCCN(C(=O)COc2ccccc2O)C1 (stereo not drawn),,inactive: 0.113% [at 102 µM]
CN(CCN1CCOCC1)Cc1nc(-c2ccccc2)no1,"inconclusive: 79.4 µM [inhibitor, partial curve, poor fit]",
CCc1ccccc1NC(=O)COC(=O)c1c(C)nsc1NC,"inconclusive: 3.98 µM [inhibitor, single point]",
CN1CCN(S(=O)(=O)c2cccc(C(=O)Nc3ccccc3N3CCCC3)c2)CC1,"inconclusive: 79.4 µM [inhibitor, single point]",
N#CC1=C(SCc2ccccc2Cl)NC(=O)C(C(N)=O)C1 (stereo not drawn),"inconclusive: 56.2 µM [inhibitor, partial curve, poor fit]",
O=C(CSc1nnc2c(Cl)cc(Cl)cn12)N1CCN(c2ccc(F)cc2)CC1,"inconclusive: 11.2 µM [inhibitor, partial curve]",
COc1ccc(OCCSc2nnc3sc4ccccc4n23)cc1,"inconclusive: 39.8 µM [inhibitor, single point]",
CSCc1c(C(=O)Nc2ccc3c(c2)OCO3)oc2ccccc12,active: 35.5 µM,
Cc1nc2cccnc2n1C1CCN(C(=O)Nc2ccccc2C(F)(F)F)CC1,,inactive: 9.73% [at 12.7 µM]
CCC(C)(C)c1ccc(OCCCC[n+]2ccc(C)cc2)c(C(C)(C)CC)c1,"inconclusive: 89.1 µM [inhibitor, partial curve, poor fit]",
CCC(CC)Nc1ccc(C(CC(N)=O)NC(=O)Cc2cccc3ccccc23)cc1[N+](=O)[O-] (stereo not drawn),"inconclusive: 100 µM [inhibitor, single point]",
Brc1cc2c(cc1C1Nc3ccccc3C3C=CCC31)OCO2 (stereo not drawn),,inactive: 42.2%
Cc1cc(C)cc(OC2CCCCC2NS(=O)(=O)c2ccccc2)c1 (stereo not drawn),,inactive: -4.29%
CCOC(=O)[C@H]1[C@H]2COc3ccccc3[C@@H]2N2C(=O)c3cc(OC)c(OC)cc3NC(=O)[C@@]12C,,inconclusive: -79.5% [inhibitor] [at 2.33 µM]
O=S(=O)(N/N=C\C=C\c1ccccc1)c1ccc(Cl)cc1,"inconclusive: 79.4 µM [inhibitor, partial curve, poor fit]",
CN(C)S(=O)(=O)c1cccc(C(=O)C2=C3SC=C(c4ccccc4)N3CC2)c1,,inconclusive: -95.7% [inhibitor]
O=C(Nc1cccnc1Cl)c1ccc(=O)oc1,active: 35.5 µM,
COC(=O)c1scc(-c2ccc(C)cc2)c1S(=O)(=O)Nc1ccc(NC(C)=O)cc1,,inactive: 14.2%

Compound,Potency,"activity, negative = inhibition"
Cc1cc(-c2n[nH]c(=S)n2/N=C/c2cccc(O)c2)n[nH]1,active: 2.24 µM,
Clc1ccc(OCCNCCc2ccccc2)cc1,"inconclusive: 79.4 µM [inhibitor, single point]",
Cc1ccc(N(CC2CO2)S(=O)(=O)c2ccccc2[N+](=O)[O-])cc1 (stereo not drawn),,inactive: 10% [at 102 µM]
CC(NC(=O)COC(=O)C1=NN(c2ccccc2)C(=O)CC1)c1ccccc1 (stereo not drawn),"inconclusive: 35.5 µM [inhibitor, partial curve, poor fit]",
Cn1c(=NC(=O)c2ccco2)sc2ccccc21,,inactive: -3.44% [at 102 µM]
COc1ccc(-n2c(N)c(C(=O)NCc3ccco3)sc2=S)cc1,"inconclusive: 4.47 µM [inhibitor, single point]",
COc1c(C)cc(Br)cc1C(=O)NC(=S)Nc1ccc(Cl)c(C(=O)O)c1,active: 50.1 µM,
COc1ccc(NC(=O)CN2CCOCC2)cc1,"inconclusive: 2.51 µM [inhibitor, partial curve, poor fit]",
CCOC(=O)c1ccc(NC(=O)Cc2coc3cc4c(cc23)CCC4)cc1,"inconclusive: 28.2 µM [inhibitor, single point]",
CSc1cccc(NC(=O)c2[nH]c(C)c(C(C)=O)c2C)c1,"inconclusive: 70.8 µM [inhibitor, single point]",
Cc1cccc(OCC(=O)Nc2cccc(C(=O)OCc3cc(=O)n4c(C)csc4n3)c2)c1,,inactive: 6.56%
O=c1ccc2cc(O)c(O)cc2o1,"inactive and inconclusive: 79.4 µM [inhibitor, single point]",
CC(OC(=O)Cc1ccccc1F)C(=O)Nc1ccc(Cl)cn1 (stereo not drawn),"inconclusive: 100 µM [inhibitor, single point]",
COc1cccc(NC(=O)CSc2nnc(CNC(=O)c3ccco3)n2C)c1,,inactive: -0.679% [at 102 µM]
COc1cccc(NC(=O)CN(C)C(=O)c2cc(C)oc2C)c1,,inactive: -6.12% [at 12.7 µM]
C=CCOc1cccc(C2C(C(=O)c3ccco3)=C(O)C(=O)N2Cc2ccco2)c1 (stereo not drawn),active: 44.7 µM,
COCCN(C(=O)CNC(=O)c1ccco1)C(C(=O)NC1CCCCC1)c1cccc(OC)c1 (stereo not drawn),"inconclusive: 25.1 µM [inhibitor, single point]",
CC(C)C[C@H](N)c1cn([C@@H](Cc2cc3ccccc3[nH]2)C(=O)N2CCNCC2)nn1,,inconclusive: -69.7% [inhibitor]
O=C(OCC(O)CO)c1ccccc1Nc1ccnc2cc(Cl)ccc12 (stereo not drawn),,inactive: -14.4% [at 2.33 µM] and inactive: 3.21% [at 12.7 µM]
CC(=O)OCC1=C(C(=O)O)N2C(=O)C(NC(=O)CCn3nc(C(F)(F)F)c(Br)c3C3CC3)C2SC1 (stereo not drawn),active: 39.8 µM,
O=C(c1ccco1)N1CCN(Cc2nnc(-c3ccccc3)o2)CC1,,inactive: 101% [at 102 µM]
CC(=O)Nc1ccc(-c2csc(NC(=O)C3=COCCO3)n2)cc1,"inconclusive: 56.2 µM [inhibitor, partial curve]",
